Reference: the RNAGym collection of RNA variant scans (doi:10.1073/pnas.2313332121)
This sample is rich in variants without activity.

B1: TPR 5TU (parent)
chain: GGAUCUUCUCGAUCUAACAAAAAAGACAAAUCUGCCACAAAGCUUGAGAGCAUCUUCGGAUGCAGAGGCGGCAGCCUUCGGUGGCGCGAUAGCGCCAACGUUCUCAACUAUGACACGCAAAACGCGUGCUCCGUUGAAUGGAGUUUAUCAUG

Variants of: B1
Assay: polymerase ribozyme fitness, log enrichment relative to wild type (log ratio); higher = more active; in vitro selection for triplet polymerase activity
How it was run: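 Mutant libraries of each subunit of a heterodimeric triplet polymerase ribozyme were built by PCR and transcribed. Each library went through one round of in vitro selection in triplicate: annealing with biotinylated primer, partner subunit and triplets, frozen incubation at −7 °C, gel excision of extended constructs, streptavidin-bead capture and RT-PCR. Input and output libraries were Illumina-sequenced; only genotypes with ≥10 input reads and ≥1 read per output were kept. Fitness is log2(genotype enrichment/wild-type enrichment), using inverse-variance-weighted replicate averages.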

Polymerase ribozyme fitness (log ratio), ≤ -4.2:
GGAUCUUCUCGAUCUAACAAAAAAGACAAAUCUGCCACAAAGCUUGAGAGCAUCUUCGGAUGCAGAGGCGGCAGCCUUCGGUGGCGCGUUAGCUCCAACGUUCUCAAGUAUGACACGUACACCGCGUGCUCCGUUGCAUGGAGUUUAUCAUG [A89U G94U C108G C118U A120C A122C A137C]
GGAUCUUCUCGAUCUAACAAAAAAGACAAAUCUGCCACAAAGCUUGAGAGCAUCUUCGGAUGCAGAGGCGGCAGCCUUCGGUGGCGCGAAAGAGCCAACGUUCUCAGCUAUGACACGCAAAACGCGUGCUCCGUUGAAUGGACUUUAUCAUG [U90A C93A A107G G143C]
GGAUCUUCUCGAUCUAACAAAAAAGACAAAUCUGCCACAAAGCUUGAGAGCAUCUUCGGAUGCAGAGGCGGCAGCCUUCGGUGGCGCGAAAGCGCCAACGUUCUCAACUAUGACACGCAAAACGCGUGCUCCGUUGAAUGGAGGUUAUCAUG [U90A U144G]
GGAUCUUCUCGAUCUAACAAAAAAGACAAAUCUGCCACAAAGCUUGAGAGCAUCUUCGGAUGCAGAGGCGGCAGCCUUCGGUGGCGCGACAGCGCCAACGUUCUCAACUAUGACACGCAAAACGCGUGCUCCGUUGCAUGGAGUUUAUCAUG [U90C A137C]
GGAUCUUCUCGAUCUAACAAAAAAGACAAAUCUGCCACAAAGCUUGAGAGCAUCUUCGGAUGCAGAGGCGGCAGCCUUCGGUGGCGCGACAGCGCCAACGUUCUUAACUAUGACACGCAAAACGCGUGCUCCGUUGAAUGAAGUUUAUCAUG [U90C C105U G141A]
GGAUCUUCUCGAUCUAACAAAAAAGACAAAUCUGCCACAAAGCUUGAGAGCAUCUUCGGAUGCAGAGGCGGCAGCCUUCGGUGGCGCGACAGCGCCAACGUUCUCAACUAUGAUACGCAAAACGCGUGCUCCGUUGAAUGGAGUUUAUCAUG [U90C C114U]
GGAUCUUCUCGAUCUAACAAAAAAGACAAAUCUGCCACAAAGCUUGAGAGCAUCUUCGGAUGCAGAGGCGGCAGCCUUCGGUGGCGCGACAGCGCCAACGUUCUCAACUAUGACACGCAAAACGCGUGCUACGUUGAAUGGAGUUUAUCAUG [U90C C131A]
GGAUCUUCUCGAUCUAACAAAAAAGACAAAUCUGCCACAAAGCUUGAGAGCAUCUUCGGAUGCAGAGGCGGCAGCCUUCGGUGGCGCGACAACGCCAACGUUCUGAACUAUGACACGCAAAACGCGUGCUCCGUUGAAUGGAGUUUAUCAUG [U90C G92A C105G]
GGAUCUUCUCGAUCUAACAAAAAAGACAAAUCUGCCACAAAGCUUGAGAGCAUCUUCGGAUGCAGAGGCGGCAGCCUUCGGUGGCGCGAGAGUGCCAACGUUCUCAACUAUGACACGCAAAACGCGUGCUCCGUUGAAUGGAGUUUAUCAUG [U90G C93U]
GGAUCUUCUCGAUCUAACAAAAAAGACAAAUCUGCCACAAAGCUUGAGAGCAUCUUCGGAUGCAGAGGCGGCAGCCUUCGGUGGCGCGAGAGCGGCGACGUUCUUAACUAUGACACGCAAAACGCGUGCUCCGUUGAAUGGAGUUUAUCAUU [U90G C95G A97G C105U G152U]
GGAUCUUCUCGAUCUAACAAAAAAGACAAAUCUGCCACAAAGCUUGAGAGCAUCUUCGGAUGCAGAGGCGGCAGCCUUCGGUGGCGCGAGAGCGCUAACGUUCUCAACUAUGGCACGCAAAACGCGUGCUCCGUUGAAUGGAGUUUAUCAUG [U90G C96U A113G]
GGAUCUUCUCGAUCUAACAAAAAAGACAAAUCUGCCACAAAGCUUGAGAGCAUCUUCGGAUGCAGAGGCGGCAGCCUUCGGUGGCGCGAGAUCGCCAACGUUCUCAACUAUGACACGCAAAACGCGUGCUCCGUUGAAUGGAGUUUAUCAUG [U90G G92U]
GGAUCUUCUCGAUCUAACAAAAAAGACAAAUCUGCCACAAAGCUUGAGAGCAUCUUCGGAUGCAGAGGCGGCAGCCUUCGGUGGCGCGAGAGCGCCAACGUUCUCAACUAUGACACGCAAAACGCCAGCUCCGUUGAAUGGAGUUUAUCAUG [U90G G126C U127A]
GGAUCUUCUCGAUCUAACAAAAAAGACAAAUCUGCCACAAAGCUUGAGAGCAUCUUCGGAUGCAGAGGCGGCAGCCUUCGGUGGCGCGAUCGCGCCGACGUUCUCAUCUAUGACACGCAAAACGCGUGCUCCGUUGAAUGGAGUUUAUCAUG [A91C A97G A107U]
GGAUCUUCUCGAUCUAACAAAAAAGACAAAUCUGCCACAAAGCUUGAGAGCAUCUUCGGAUGCAGAGGCGGCAGCCUUCGGUGGCGCGAUCGCGCCAACGUUCUCAACUAUGACACGCAUAACGCGUGCUCCGUUGAAUGGAGUUUAUCAUG [A91C A120U]
GGAUCUUCUCGAUCUAACAAAAAAGACAAAUCUGCCACAAAGCUUGAGAGCAUCUUCGGAUGCAGAGGCGGCAGCCUUCGGUGGCGCGAUCGCGCCAACGUUCUCAACUAUGACACGCAAAACGCGUGCUCCGUUGAAUGGGGUUUAUCAUG [A91C A142G]
GGAUCUUCUCGAUCUAACAAAAAAGACAAAUCUGCCACAAAGCUUGAGAGCAUCUUCGGAUGCAGAGGCGGCAGCCUUCGGUGGCGCGAUCGCGUCAACGUUCUCAACUAUGACACGCAAAACGCGUGCUCCGUUGAAUGGAGUUUAUCAUG [A91C C95U]
GGAUCUUCUCGAUCUAACAAAAAAGACAAAUCUGCCACAAAGCUUGAGAGCAUCUUCGGAUGCAGAGGCGGCAGCCUUCGGUGGCGCGAUCGCGCCAAGGUUCUCUACUAUGACACGCAAAACGUGUGCUCCGUUGAACGGAGUUCAUCAUG [A91C C99G A106U C125U U139C U146C]
GGAUCUUCUCGAUCUAACAAAAAAGACAAAUCUGCCACAAAGCUUGAGAGCAUCUUCGGAUGCAGAGGCGGCAGCCUUCGGUGGCGCGAUCGCGCCAACGUUAUCAACUAUGACACGCAAAACGCGUGCUCCGUUGAAUGGGGUUUAUCAUG [A91C C103A A142G]
GGAUCUUCUCGAUCUAACAAAAAAGACAAAUCUGCCACAAAGCUUGAGAGCAUCUUCGGAUGCAGAGGCGGCAGCCUUCGGUGGCGCGAUCGCGCCAACGUUCUCAACUAUGACACGCAAAACGCGUGCUACGUUGAAUGGAGUUUAUGAUG [A91C C131A C149G]
GGAUCUUCUCGAUCUAACAAAAAAGACAAAUCUGCCACAAAGCUUGAGAGCAUCUUCGGAUGCAGAGGCGGCAGCCUUCGGUGGCGCGAUGGCGCCAACGUUCUCAACUAUGACACGCAAAACGCGUGCUCCGUUCAAUGGAGUUUAUCAUG [A91G G136C]
GGAUCUUCUCGAUCUAACAAAAAAGACAAAUCUGCCACAAAGCUUGAGAGCAUCUUCGGAUGCAGAGGCGGCAGCCUUCGGUGGCGCGAUUGCGCCAACGUUCUCAACUAUGACGCGCAAAACGCGUGCUCCGUUGAAUGGAGUUUAUCAUG [A91U A115G]
GGAUCUUCUCGAUCUAACAAAAAAGACAAAUCUGCCACAAAGCUUGAGAGCAUCUUCGGAUGCAGAGGCGGCAGCCUUCGGUGGCGCGAUUGAGCCAACGUUCUCAACUAUGACACGCAAAACGCGUGCUCCGUUGAAUAGAGUUUAUCAUG [A91U C93A G140A]
GGAUCUUCUCGAUCUAACAAAAAAGACAAAUCUGCCACAAAGCUUGAGAGCAUCUUCGGAUGCAGAGGCGGCAGCCUUCGGUGGCGCGAUUGCGCCAACGUUCUCAACUAUGACACGCAAAACGCGUGCUCUGUUGAAUUGAGUUUAUCAUG [A91U C132U G140U]
GGAUCUUCUCGAUCUAACAAAAAAGACAAAUCUGCCACAAAGCUUGAGAGCAUCUUCGGAUGCAGAGGCGGCAGCCUUCGGUGGCGCGAUUGCGCCAACAUUCUCAACUAUGACACGCAAAACGCGUGCUCCGUGGAAUGGAGUUUAUCAUG [A91U G100A U135G]
GGAUCUUCUCGAUCUAACAAAAAAGACAAAUCUGCCACAAAGCUUGAGAGCAUCUUCGGAUGCAGAGGCGGCAGCCUUCGGUGGCGCGAUUGCGCCAACGUUCUCAACUAUGACACGCAAAACGCGUGCUCCAUUGAAUGGAGUUUAUCAUG [A91U G133A]
GGAUCUUCUCGAUCUAACAAAAAAGACAAAUCUGCCACAAAGCUUGAGAGCAUCUUCGGAUGCAGAGGCGGCAGCCUUCGGUGGCGCGAUAACGCCAACGUUCUCAACUAUGACACGCAAAACGCGUGCUCCGUUGAAUGGAGUUUGUCAUG [G92A A147G]
GGAUCUUCUCGAUCUAACAAAAAAGACAAAUCUGCCACAAAGCUUGAGAGCAUCUUCGGAUGCAGAGGCGGCAGCCUUCGGUGGCGCGAUAAGGCCAACGUCCUCAACUAUGACACGCAAAACGCGUGCUCCGUUGAAUGGAGUUUAUCAUG [G92A C93G U102C]
GGAUCUUCUCGAUCUAACAAAAAAGACAAAUCUGCCACAAAGCUUGAGAGCAUCUUCGGAUGCAGAGGCGGCAGCCUUCGGUGGCGCGAUAACGCCAACGUUCUCAACUAUGACACGGAAAACGCGUGCUCCUUUAAAUGGAGUUUAUCAUG [G92A C118G G133U G136A]
GGAUCUUCUCGAUCUAACAAAAAAGACAAAUCUGCCACAAAGCUUGAGAGCAUCUUCGGAUGCAGAGGCGGCAGCCUUCGGUGGCGCGAUACCGCCGACGUUCACAACUAUGACACGCUUAACGCGUGCUCCGUUGAAUGGAGGUUAUCAUG [G92C A97G U104A A119U A120U U144G]
GGAUCUUCUCGAUCUAACAAAAAAGACAAAUCUGCCACAAAGCUUGAGAGCAUCUUCGGAUGCAGAGGCGGCAGCCUUCGGUGGCGCGAUACCGCCAACGUUCUCAACUAUGACACGCGAAACGCGUGCUCCGCUGAAUGGAGUUUAUAAUG [G92C A119G U134C C149A]
GGAUCUUCUCGAUCUAACAAAAAAGACAAAUCUGCCACAAAGCUUGAGAGCAUCUUCGGAUGCAGAGGCGGCAGCCUUCGGUGGCGCGAUACCGCCAACGUUCUCAACUAUGAAACGUAAAAGGCGUGCUCCGUUGAAUGGAGUUUAUCAUG [G92C C114A C118U C123G]
GGAUCUUCUCGAUCUAACAAAAAAGACAAAUCUGCCACAAAGCUUGAGAGCAUCUUCGGAUGCAGAGGCGGCAGCCUUCGGUGGCGCGAUACCGCCAACGUUCUCAACUAUGACACGCAAAACGCGUGCUCCGUUGAAUGGACUUUAGCAUG [G92C G143C U148G]
GGAUCUUCUCGAUCUAACAAAAAAGACAAAUCUGCCACAAAGCUUGAGAGCAUCUUCGGAUGCAGAGGCGGCAGCCUUCGGUGGCGCGAUACCGCCAACGUUCUCAACUAUGACACGCAAAACGCGGGCUCCGUUGAAUGGAGUAUAUCCUG [G92C U127G U145A A150C]
GGAUCUUCUCGAUCUAACAAAAAAGACAAAUCUGCCACAAAGCUUGAGAGCAUCUUCGGAUGCAGAGGCGGCAGCCUUCGGUGGCGCGAUACCGCCAACGUUCUCAACUAUGACACGCAAAACGCGUGCUCCGUUGAAUGGAGUUUAUCAGG [G92C U151G]
GGAUCUUCUCGAUCUAACAAAAAAGACAAAUCUGCCACAAAGCUUGAGAGCAUCUUCGGAUGCAGAGGCGGCAGCCUUCGGUGGCGCGAUAGAGCCAACGUUCUCGUCUAUGAGACGCAAAACGCGUGCUCCGUUGAAUGGAGUUUACCAUG [C93A A106G A107U C114G U148C]
GGAUCUUCUCGAUCUAACAAAAAAGACAAAUCUGCCACAAAGCUUGAGAGCAUCUUCGGAUGCAGAGGCGGCAGCCUUCGGUGGCGCGAUAGAGCCAACGUUCUCAACUCUGACACGCAAAACGCGUGCUCCGUUGAAUGGAGUUUAUCAUG [C93A A110C]
GGAUCUUCUCGAUCUAACAAAAAAGACAAAUCUGCCACAAAGCUUGAGAGCAUCUUCGGAUGCAGAGGCGGCAGCCUUCGGUGGCGCGAUAGAGUCAACGUUCUCAACUAUGACUCGCAAAACGCGUGCUCCGUUGAAUGGAGUUUUUCAUG [C93A C95U A115U A147U]
